In the supplement of paper PMC8728848:
The other results are listed elsewhere or left out.

Legend:
Assay in all cases: glycan array binding signal (z-score within array); higher = stronger binding
Conditions in all cases: glycan notation: IUPAC condensed, linker removed
[1] = molecular target: Gal(b1-3)GlcNAc(b1-6)[Gal(b1-3)]GalNAc
Procedure, shortened: (§1)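 The binding signal is a Z-score computed within each array and averaged over linkers. Arrays of the same protein sequence at different concentrations or buffers were also averaged together. Data originate from 3228 arrays in the Consortium for Functional Glycomics database, kept only where the protein sequence was available.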

Gal(b1-3)GlcNAc6S = molecular target: Gal(b1-3)GlcNAc6S
Procedure, shortened: as §1

[2] = molecular target: Gal(b1-3)[Fuc(a1-4)]GlcNAc
Procedure, shortened: as §1

[3] = molecular target: Gal(b1-3)[Fuc(a1-4)]GlcNAc(b1-2)Man
Procedure, shortened: as §1

[4] = molecular target: Gal(b1-3)[Fuc(a1-4)]GlcNAc(b1-2)Man(a1-3)[Gal(b1-3)[Fuc(a1-4)]GlcNAc(b1-2)Man(a1-6)]Man(b1-4)GlcNAc(b1-4)[Fuc(a1-6)]GlcNAc
Procedure, shortened: as §1

[5] = molecular target: Gal(b1-3)[Fuc(a1-4)]GlcNAc(b1-3)Gal(b1-3)[Fuc(a1-4)]GlcNAc
Procedure, shortened: as §1

[6] = molecular target: Gal(b1-3)[Fuc(a1-4)]GlcNAc(b1-3)Gal(b1-4)[Fuc(a1-3)]GlcNAc
Procedure, shortened: as §1

[7] = molecular target: Gal(b1-3)[Fuc(a1-4)]GlcNAc(b1-6)GalNAc
Procedure, shortened: as §1

[8] = molecular target: Gal(b1-3)[GlcNAc(b1-6)]GalNAc
Procedure, shortened: as §1

[9] = molecular target: Gal(b1-3)[Neu5Ac(a2-6)]GalNAc
Procedure, shortened: as §1

[10] = molecular target: Gal(b1-3)[Neu5Ac(a2-6)]GlcNAc(b1-4)Gal(b1-4)Glc
Procedure, shortened: as §1

[11] = molecular target: Gal(b1-3)[Neu5Ac(b2-6)]GalNAc
Procedure, shortened: as §1

Gal(b1-4)Gal = molecular target: Gal(b1-4)Gal
Procedure, shortened: as §1

[12] = molecular target: Gal(b1-4)GalNAc(a1-3)[Fuc(a1-2)]Gal(b1-4)GlcNAc
Procedure, shortened: as §1

[13] = molecular target: Gal(b1-4)GalNAc(b1-3)[Fuc(a1-2)]Gal(b1-4)GlcNAc
Procedure, shortened: as §1

Gal(b1-4)Glc = molecular target: Gal(b1-4)Glc
Procedure, shortened: as §1

Gal(b1-4)Glc6S = molecular target: Gal(b1-4)Glc6S
Procedure, shortened: as §1

Gal(b1-4)GlcNAc = molecular target: Gal(b1-4)GlcNAc
Procedure, shortened: as §1

[14] = molecular target: Gal(b1-4)GlcNAc(a1-6)Gal(b1-4)GlcNAc
Procedure, shortened: as §1

Gal(b1-4)GlcNAc(b1-2)Man = molecular target: Gal(b1-4)GlcNAc(b1-2)Man
Procedure, shortened: as §1

[15] = molecular target: Gal(b1-4)GlcNAc(b1-2)Man(a1-3)Man(b1-4)GlcNAc(b1-4)GlcNAc
Procedure, shortened: as §1

[16] = molecular target: Gal(b1-4)GlcNAc(b1-2)Man(a1-3)[Gal(b1-4)GlcNAc(b1-2)Man(a1-6)]Man(b1-4)GlcNAc(b1-4)GlcNAc
Procedure, shortened: as §1

[17] = molecular target: Gal(b1-4)GlcNAc(b1-2)Man(a1-3)[Gal(b1-4)GlcNAc(b1-2)Man(a1-6)]Man(b1-4)GlcNAc(b1-4)[Fuc(a1-6)]GlcNAc
Procedure, shortened: as §1

[18] = molecular target: Gal(b1-4)GlcNAc(b1-2)Man(a1-3)[Gal(b1-4)GlcNAc(b1-2)Man(a1-6)][Gal(b1-4)GlcNAc(b1-4)]Man(b1-4)GlcNAc(b1-4)[Fuc(a1-6)]GlcNAc
Procedure, shortened: as §1

[19] = molecular target: Gal(b1-4)GlcNAc(b1-2)Man(a1-3)[Gal(b1-4)GlcNAc(b1-2)Man(a1-6)][GlcNAc(b1-4)]Man(b1-4)GlcNAc(b1-4)[Fuc(a1-6)]GlcNAc
Procedure, shortened: as §1

[20] = molecular target: Gal(b1-4)GlcNAc(b1-2)Man(a1-3)[GlcNAc(b1-2)Man(a1-6)]Man(b1-4)GlcNAc(b1-4)GlcNAc
Procedure, shortened: as §1

[21] = molecular target: Gal(b1-4)GlcNAc(b1-2)Man(a1-3)[GlcNAc(b1-4)][Gal(b1-4)GlcNAc(b1-2)Man(a1-6)]Man(b1-4)GlcNAc(b1-4)GlcNAc
Procedure, shortened: as §1

[22] = molecular target: Gal(b1-4)GlcNAc(b1-2)Man(a1-3)[Man(a1-6)]Man(b1-4)GlcNAc(b1-4)GlcNAc
Procedure, shortened: as §1

[23] = molecular target: Gal(b1-4)GlcNAc(b1-2)Man(a1-6)Man(b1-4)GlcNAc(b1-4)GlcNAc
Procedure, shortened: as §1

[24] = molecular target: Gal(b1-4)GlcNAc(b1-2)Man(a1-6)[GlcNAc(b1-2)Man(a1-3)]Man(b1-4)GlcNAc(b1-4)GlcNAc
Procedure, shortened: as §1

[25] = molecular target: Gal(b1-4)GlcNAc(b1-2)Man(a1-6)[Man(a1-3)]Man(b1-4)GlcNAc(b1-4)GlcNAc
Procedure, shortened: as §1

[26] = molecular target: Gal(b1-4)GlcNAc(b1-2)[Gal(b1-4)GlcNAc(b1-4)]Man(a1-3)[Gal(b1-4)GlcNAc(b1-2)Man(a1-6)]Man(b1-4)GlcNAc(b1-4)GlcNAc
Procedure, shortened: as §1

[27] = molecular target: Gal(b1-4)GlcNAc(b1-2)[Gal(b1-4)GlcNAc(b1-4)]Man(a1-3)[Gal(b1-4)GlcNAc(b1-2)[Gal(b1-4)GlcNAc(b1-6)]Man(a1-6)]Man(b1-4)GlcNAc(b1-4)GlcNAc
Procedure, shortened: as §1

[28] = molecular target: Gal(b1-4)GlcNAc(b1-2)[Gal(b1-4)GlcNAc(b1-4)]Man(a1-3)[GlcNAc(b1-4)][Gal(b1-4)GlcNAc(b1-2)Man(a1-6)]Man(b1-4)GlcNAc(b1-4)GlcNAc
Procedure, shortened: as §1

[29] = molecular target: Gal(b1-4)GlcNAc(b1-2)[Gal(b1-4)GlcNAc(b1-4)]Man(a1-3)[GlcNAc(b1-4)][Gal(b1-4)GlcNAc(b1-2)[Gal(b1-4)GlcNAc(b1-6)]Man(a1-6)]Man(b1-4)GlcNAc(b1-4)GlcNAc
Procedure, shortened: as §1

[30] = molecular target: Gal(b1-4)GlcNAc(b1-2)[Gal(b1-4)GlcNAc(b1-6)]Man(a1-6)[Gal(b1-4)GlcNAc(b1-2)Man(a1-3)]Man(b1-4)GlcNAc(b1-4)GlcNAc
Procedure, shortened: as §1

[31] = molecular target: Gal(b1-4)GlcNAc(b1-2)[Gal(b1-4)GlcNAc(b1-6)]Man(a1-6)[Gal(b1-4)GlcNAc(b1-2)Man(a1-3)]Man(b1-4)GlcNAc(b1-4)[Fuc(a1-6)]GlcNAc
Procedure, shortened: as §1

[32] = molecular target: Gal(b1-4)GlcNAc(b1-2)[Gal(b1-4)GlcNAc(b1-6)]Man(a1-6)[GlcNAc(b1-4)][Gal(b1-4)GlcNAc(b1-2)Man(a1-3)]Man(b1-4)GlcNAc(b1-4)GlcNAc
Procedure, shortened: as §1

[33] = molecular target: Gal(b1-4)GlcNAc(b1-2)[Gal(b1-4)GlcNAc(b1-6)]Man(a1-6)[GlcNAc(b1-4)][Gal(b1-4)GlcNAc(b1-2)[Gal(b1-4)GlcNAc(b1-4)]Man(a1-3)]Man(b1-4)GlcNAc(b1-4)[Fuc(a1-6)]GlcNAc
Procedure, shortened: as §1

[34] = molecular target: Gal(b1-4)GlcNAc(b1-3)Gal(b1-3)GalNAc
Procedure, shortened: as §1

[35] = molecular target: Gal(b1-4)GlcNAc(b1-3)Gal(b1-3)GlcNAc
Procedure, shortened: as §1

[36] = molecular target: Gal(b1-4)GlcNAc(b1-3)Gal(b1-4)Glc
Procedure, shortened: as §1

[37] = molecular target: Gal(b1-4)GlcNAc(b1-3)Gal(b1-4)GlcNAc
Procedure, shortened: as §1

[38] = molecular target: Gal(b1-4)GlcNAc(b1-3)Gal(b1-4)GlcNAc(b1-2)Man(a1-3)[Gal(b1-4)GlcNAc(b1-3)Gal(b1-4)GlcNAc(b1-2)Man(a1-6)]Man(b1-4)GlcNAc(b1-4)GlcNAc
Procedure, shortened: as §1

[39] = molecular target: Gal(b1-4)GlcNAc(b1-3)Gal(b1-4)GlcNAc(b1-2)Man(a1-3)[Gal(b1-4)GlcNAc(b1-3)Gal(b1-4)GlcNAc(b1-2)Man(a1-6)]Man(b1-4)GlcNAc(b1-4)[Fuc(a1-6)]GlcNAc
Procedure, shortened: as §1

B1: RBMC1 (Vibrio cholerae) (protein)
chain: QQSQRVVTADNLMYLRSGFAIDAIGTTVNNLVGGPVQGTNGGVLRAPIALDQLQSVEVTSGLYNWGGYHIVAIKFTMKDGSSVLLGSTHYASNKKVETYTVPQGKRIKQINVWTGGWLVEGFQFVY
- glycan array binding signal (z-score) [1]: -0.368
- glycan array binding signal (z-score) (Gal(b1-3)GlcNAc6S): -0.361
- glycan array binding signal (z-score) [2]: -0.314
- glycan array binding signal (z-score) [3]: -0.309
- glycan array binding signal (z-score) [4]: -0.244
- glycan array binding signal (z-score) [5]: -0.381
- glycan array binding signal (z-score) [6]: -0.3
- glycan array binding signal (z-score) [7]: -0.263
- glycan array binding signal (z-score) [8]: -0.127
- glycan array binding signal (z-score) [9]: -0.332
- glycan array binding signal (z-score) [10]: -0.274
- glycan array binding signal (z-score) [11]: -0.391
- glycan array binding signal (z-score) (Gal(b1-4)Gal): -0.312
- glycan array binding signal (z-score) [12]: -0.396
- glycan array binding signal (z-score) [13]: -0.363
- glycan array binding signal (z-score) (Gal(b1-4)Glc): -0.301
- glycan array binding signal (z-score) (Gal(b1-4)Glc6S): -0.229
- glycan array binding signal (z-score) (Gal(b1-4)GlcNAc): -0.334
- glycan array binding signal (z-score) [14]: -0.36
- glycan array binding signal (z-score) (Gal(b1-4)GlcNAc(b1-2)Man): -0.189
- glycan array binding signal (z-score) [15]: -0.354
- glycan array binding signal (z-score) [16]: 0.571
- glycan array binding signal (z-score) [17]: 1.02
- glycan array binding signal (z-score) [18]: -0.123
- glycan array binding signal (z-score) [19]: -0.324
- glycan array binding signal (z-score) [20]: 1.72
- glycan array binding signal (z-score) [21]: -0.137
- glycan array binding signal (z-score) [22]: 0.105
- glycan array binding signal (z-score) [23]: -0.18
- glycan array binding signal (z-score) [24]: 1.1
- glycan array binding signal (z-score) [25]: -0.205
- glycan array binding signal (z-score) [26]: -0.14
- glycan array binding signal (z-score) [27]: 1.06
- glycan array binding signal (z-score) [28]: -0.268
- glycan array binding signal (z-score) [29]: -0.317
- glycan array binding signal (z-score) [30]: 0.846
- glycan array binding signal (z-score) [31]: 0.282
- glycan array binding signal (z-score) [32]: -0.233
- glycan array binding signal (z-score) [33]: -0.382
- glycan array binding signal (z-score) [34]: -0.215
- glycan array binding signal (z-score) [35]: -0.447
- glycan array binding signal (z-score) [36]: -0.275
- glycan array binding signal (z-score) [37]: -0.274
- glycan array binding signal (z-score) [38]: 0.855
- glycan array binding signal (z-score) [39]: 2.64
